In publication PMC7819943, “Rice protein-binding microarrays: a tool to detect cis-acting elements near promoter regions in rice” one finds binding signal data, which are given here for 42 sequences.

This is one part of the list.

For the test, the target named is T1, OsWOX13 (Oryza sativa, UniProt Q5QMM3 1-267).
T1 sequence: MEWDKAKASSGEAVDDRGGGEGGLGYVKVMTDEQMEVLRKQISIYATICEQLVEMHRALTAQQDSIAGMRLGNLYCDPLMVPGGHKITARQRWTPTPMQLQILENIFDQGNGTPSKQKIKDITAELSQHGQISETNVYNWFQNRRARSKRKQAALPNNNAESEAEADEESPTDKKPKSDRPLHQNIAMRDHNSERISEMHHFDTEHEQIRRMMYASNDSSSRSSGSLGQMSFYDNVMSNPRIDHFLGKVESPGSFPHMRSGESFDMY
The test can be described thus: protein-binding microarray (RPBM); PBS, 2% BSA, 51.3 ng/ul salmon testes DNA, 50 uM zinc acetate, 200 nM TF, 25 C, 1 h; high values mean tight binding. The settings on record: protein: recombinant; tags: N-terminal polyhistidine and DsRed monomer fusion (pET32a); label: CyDye5-dUTP incorporated in the synthesized complementary strand; 3' TTTTT single-stranded linker to array surface; dsDNA, one strand shown. The method in brief: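 Transcription factors were made in E. coli BL21-CodonPlus as N-terminal fusions to a polyhistidine tag and DsRed, then purified on Ni–NTA. After primer extension with Cy5-dUTP and blocking with 2% BSA, a custom Agilent array was exposed for 1 h at 25 °C to 200 nM protein in PBS, 2% BSA, salmon testes DNA and 50 µM zinc acetate. Washed arrays were scanned on an Axon 4000B, and the binding signal is per-feature fluorescence intensity in arbitrary units.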
In the case of “TTCTCATCTTAATTTACATCATATGGTATGCATCTCTGCACGGAGTCACCTAGTGCAG”, the binding signal is 7860 fluorescence intensity (a.u.). For the sequence “AACTTATCAAAATTTAATTGGGATTATTTTGGCGATAATACGGAGTCACCTAGTGCAG”, the binding signal was 16100 fluorescence intensity (a.u.). Next, “ACCAAATTATCCTGTTTATTTCTTAGAAGCAAACTATTTGCGGAGTCACCTAGTGCAG”: 32000 fluorescence intensity (a.u.); “TTTGACGAAATTTCAATCGAAATCATCGAAATTTCGATCACGGAGTCACCTAGTGCAG”: 13100 fluorescence intensity (a.u.). The result for “CCATGCATCTGATTAGTCAAAACTAGCATCCAGTAAGCGACGGAGTCACCTAGTGCAG” reads 6350 fluorescence intensity (a.u.).

As to “GTATTAAATATAGACTAATTACAAAACCAATACCATAACCCGGAGTCACCTAGTGCAG”, the binding signal was 11800 fluorescence intensity (a.u.). Turning to “TAAAACTAATGGTATTAGACAGGGGCGGAGACAAGGGTGGCGGAGTCACCTAGTGCAG”, the binding signal was 7740 fluorescence intensity (a.u.).

As to “TGTGACACATGTTACACATAATTATTATGTGAGTGGTAAACGGAGTCACCTAGTGCAG”, the binding signal was 8980 fluorescence intensity (a.u.). Next, “ATGGATTGAGTGAGTCGTACTTAAGGACTAGAGCTATGAGCGGAGTCACCTAGTGCAG”: 6120 fluorescence intensity (a.u.); “TCTTCTTCTTCCGTCGCTAATTAGATCGTCACTACCTCTTCGGAGTCACCTAGTGCAG”: 3310 fluorescence intensity (a.u.). Next, “GAATAATGAATGATTAGGAGAGACGTGATTAGTTTAGTAGCGGAGTCACCTAGTGCAG”: 19600 fluorescence intensity (a.u.); “ACAAGTACTTAATGATTAAAATGTGCATGTGCCGAGTATACGGAGTCACCTAGTGCAG”: 4940 fluorescence intensity (a.u.). Regarding “CAAACTGATCGTTCAGTCACAGACACAGCTCAGAGCTCTCCGGAGTCACCTAGTGCAG”, the binding signal was 3380 fluorescence intensity (a.u.). As for “AGTAAATTTACTCTATTTTGATCAAGATATTTTGATCAAACGGAGTCACCTAGTGCAG”, the binding signal is 15400 fluorescence intensity (a.u.). “TCTCTGATTCTCAATTTTCAATTTCTTAATAGAGAAGAAGCGGAGTCACCTAGTGCAG”: the binding signal was 10100 fluorescence intensity (a.u.).

In the case of “AATGATTTCTCGAGCTGACTAGCTAAAATTTGTAAATGTACGGAGTCACCTAGTGCAG”, the binding signal was 4360 fluorescence intensity (a.u.). As to “ACTAATCATCACATCGCTGTCTCAGATTCTCAGTGACAGACGGAGTCACCTAGTGCAG”, the binding signal is 4120 fluorescence intensity (a.u.).

Turning to “ACCTACACTTAATTAGGAGACCACTGTCCTCCTCCCCTCTCGGAGTCACCTAGTGCAG”, the binding signal is 11400 fluorescence intensity (a.u.). Take “AAATAACTAATTACACACATTGCGTGTAAATTGCGAGACGCGGAGTCACCTAGTGCAG”: the binding signal is 21000 fluorescence intensity (a.u.).

Take “ATGTGCAAATTTCTCTTGATGATGACAGTTCAAAGGATGACGGAGTCACCTAGTGCAG”: the binding signal is 3480 fluorescence intensity (a.u.). Next, “GATTAAGATTTTATCCGATTGATGATGCGCCGTAGCAGTGCGGAGTCACCTAGTGCAG”: 8650 fluorescence intensity (a.u.); “AAACTAATAATTAATTAATCATGTACTAATCTCCTTTTCTCGGAGTCACCTAGTGCAG”: 51100 fluorescence intensity (a.u.); “CCAGATTGAGCTGTTGCGCACCACCATCCTGACCAGCTGCCGGAGTCACCTAGTGCAG”: 17400 fluorescence intensity (a.u.). The result for “ATGGAAAAGCTAATCAATCAATCAATGGTTTGATTAATCACGGAGTCACCTAGTGCAG” reads 47900 fluorescence intensity (a.u.). Next, “AGAAGATATGATTTGATGCAATTGAAGTATATTCCACAATCGGAGTCACCTAGTGCAG”: 7910 fluorescence intensity (a.u.); “TTAATTGGGCTGAGATGGTCTGGGCCGTATGCCCGTACACCGGAGTCACCTAGTGCAG”: 3330 fluorescence intensity (a.u.). “CATATGGGATTGCAATTGACTTGCCATTATGGAATTATACCGGAGTCACCTAGTGCAG”: the binding signal is 6970 fluorescence intensity (a.u.). Take “GCGGTCCATAATTACTGCTAGATAGCATTGCTCAAAGCTACGGAGTCACCTAGTGCAG”: the binding signal is 6520 fluorescence intensity (a.u.). On to “TAAACCTAATTAATCATCATTAGCAAATGTTTACTGTAGCCGGAGTCACCTAGTGCAG”, for which the binding signal was 30400 fluorescence intensity (a.u.). The result for “TTCTGCATTTTAGTTCACCAATCAACTAATACTCCTCAGCCGGAGTCACCTAGTGCAG” reads 4080 fluorescence intensity (a.u.); that for “AGAGTAATGACTGTGATAGTGGTATTGACAATGCTAGTACCGGAGTCACCTAGTGCAG”, 11600 fluorescence intensity (a.u.); that for “TCAGTAAATTAGTTATCATTGGCACATAATTTAGCGTCCTCGGAGTCACCTAGTGCAG”, 27700 fluorescence intensity (a.u.). Turning to “ATAAAATATATTAATTAATTAGCTCAACCTGGCCAATTTCCGGAGTCACCTAGTGCAG”, the binding signal is 35700 fluorescence intensity (a.u.).

“TTTGTTATTGACAACTTTTCCATTTGAAATCATTTACTACCGGAGTCACCTAGTGCAG”: the binding signal is 4130 fluorescence intensity (a.u.). The result for “TTGATTGAAACACTGATGGGACTTGCATACTGCCTTATACCGGAGTCACCTAGTGCAG” reads 45100 fluorescence intensity (a.u.).

Turning to “CTGTAACATCACATTATCAAATCATATCGTAATTAGGCTCCGGAGTCACCTAGTGCAG”, the binding signal is 8230 fluorescence intensity (a.u.). Next, “AATCATGAGATGCCGTGATTAGTAGTTGGGTCGGAGGCCCCGGAGTCACCTAGTGCAG”: 4090 fluorescence intensity (a.u.); “TTTAATTCATCAATTTATATAGTGCTGCAAATGTAGTAATCGGAGTCACCTAGTGCAG”: 11900 fluorescence intensity (a.u.). Next, “CAATGTGACTGACACAAACATTTCAGGTCGACTTCCCCAGCGGAGTCACCTAGTGCAG”: 14500 fluorescence intensity (a.u.); “TCACGTAGACGGCGCGGTGATTAGTTAATCATTGTTGTTCCGGAGTCACCTAGTGCAG”: 5780 fluorescence intensity (a.u.); “TGTGATAGATTGTGCAAAATATATGTAGTTTTATGAAATTCGGAGTCACCTAGTGCAG”: 14400 fluorescence intensity (a.u.). The result for “CAAACTGATGAGGCCAACAATATCTGGTCCATCTGAATCACGGAGTCACCTAGTGCAG” reads 3790 fluorescence intensity (a.u.).
